Where a name gives a salt, the structure may show the parent alone. The full ranking holds about 2,800 compounds; the median of “cell viability relative to vehicle” is about 1.1, and the lowest 2% start at about 0.19. The list shows a part of the results.
system: NCI-H2228 parental; assay: cell viability relative to vehicle (fraction of vehicle); NCI-H2228 is an ALK-positive lung cancer line and DTP means drug-tolerant persister; higher = less growth inhibition; conditions: 100 nM; treatment time 6 days
How it was run: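 Parental NCI-H2228 cells and drug-tolerant persister cells (made with 1000 nM of a targeted drug for 13 days) were seeded in 384-well plates. The next day, the 3114-agent TargetMol anti-cancer compound library was added at 100 nM, with DMSO as vehicle. After 6 days, ATP was read with the CellTiter-Glo 3D Cell Viability Assay. Each value is cell viability relative to vehicle-treated cells.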

Row | SMILES | cell viability
1 | COc1cc(/C=C/C(=O)CC(=O)/C=C/c2ccc(O)c(OC)c2)ccc1O [Curcumin] | 1.03
2 | O=C1c2cccc3c2[C@H](CCC3)CN1[C@@H]1CN2CCC1CC2 [Palonosetron hydrochloride] | 1.03
3 | Cn1cnc([N+](=O)[O-])c1Sc1ncnc2[nH]cnc12 [Azathioprine] | 0.882
4 | CC(C)C(=O)Nc1ccc([N+](=O)[O-])c(C(F)(F)F)c1 [Flutamide] | 1.14
5 | CC1(C)CCC2=C(O1)c1ccccc1C(=O)C2=O [Beta-Lapachone] | 1.03
6 | CC(=O)OCC[N+](C)(C)C [Acetylcholine chloride] | 1.06
7 | S=C(NCc1ccc2c(c1)OCO2)N1CCN(c2ncnc3c2oc2ccccc23)CC1 [Amuvatinib] | 0.893
8 | C[C@H](CCC(=O)O)[C@H]1CC[C@H]2[C@@H]3CC[C@@H]4C[C@H](O)CC[C@]4(C)[C@H]3CC[C@]12C [Lithocholic acid] | 0.83
9 | CC(C)=CCc1cc2c(cc1O)oc(=O)c1c3ccc(O)cc3oc21 [Psoralidin] | 1.08
10 | Cc1cc(C)nc(NC(=S)N2CCN(Cc3ccc(C(F)(F)F)cc3)CC2)c1 | 1.15
11 | CCOc1cc(C(C)(C)C)ccc1C1=N[C@@](C)(c2ccc(Cl)cc2)[C@@](C)(c2ccc(Cl)cc2)N1C(=O)N1CCN(CCCS(C)(=O)=O)CC1 | 1.1
12 | CCOC(=O)Nc1ccc(NCc2ccc(F)cc2)nc1N [Flupirtine maleate] | 1.02
13 | CC1COc2c(N3CCN(C)CC3)c(F)cc3c(=O)c(C(=O)O)cn1c23 (stereo unspecified) [Ofloxacin] | 1.06
14 | O=C(/C=C/N1C[C@H]2C[C@@H]1CN2c1ccccn1)c1ccccc1O | 1.2
15 | OCc1ccccn1 [2-(Hydroxymethyl)pyridine] | 1.16
16 | CN(C(=O)c1c(O)c2ccccc2n(C)c1=O)c1ccccc1 [Roquinimex] | 0.926
17 | CC(C)Cc1ccc(C(C)C(=O)O)cc1 (stereo unspecified) [Ibuprofen] | 1.19
18 | Nc1nc2[nH]cc(CCc3ccc(C(=O)N[C@@H](CCC(=O)O)C(=O)O)cc3)c2c(=O)[nH]1 [Pemetrexed Disodium Hydrate] | 0.187
19 | CCN1CCN(Cc2ccc(Nc3ncc(F)c(-c4cc(F)c5nc(C)n(C(C)C)c5c4)n3)nc2)CC1 | 0.912
20 | CCN1CCN(Cc2ccc(Nc3ncc(F)c(-c4cc(F)c5nc(C)n(C(C)C)c5c4)n3)nc2)CC1 [Abemaciclib] | 0.839
21 | COCCc1ccc(OCC(O)CNC(C)C)cc1 (stereo unspecified) [Metoprolol tartrate] | 1.18
22 | COCCc1ccc(OCC(O)CNC(C)C)cc1 (stereo unspecified) [Metoprolol Succinate] | 0.991

Row | SMILES | cell viability
23 | O=C(OCCOCCO)c1ccccc1Nc1cccc(C(F)(F)F)c1 [Etofenamate] | 1.1
24 | O=C(O)c1cc(I)ccc1NC(=O)[C@H](Cc1ccccc1)NCc1ccccc1 | 1.04
25 | O=c1c(O)c(-c2ccc(O)c(O)c2)oc2cc(O)cc(O)c12 [Quercetin] | 1.27
26 | CN(C)CCCOc1ccc(-c2ccc3ncc4c(c3c2)n(C2CCOCC2)c(=O)n4C)cn1 | 0.704
27 | COc1ccc(C2=N[C@H](c3ccc(Cl)cc3)[C@H](c3ccc(Cl)cc3)N2C(=O)N2CCNC(=O)C2)c(OC(C)C)c1 [Nutlin-3b] | 1.15
28 | O=C(Nc1ccc([N+](=O)[O-])cc1O)Nc1ccccc1Br | 1.05
29 | O=C(c1cncc(Br)c1)N1CCC(N2CCCC2)CC1 | 1.09
30 | O=C(O)C1(C(=O)O)CCC1.[NH2-].[NH2-].[Pt+2] [Carboplatin] | 1.03
31 | COc1ccc(CC(=O)NC(/N=C(\NC#N)Nc2cccc3ncccc23)C(C)(C)C)cc1OC (stereo unspecified) | 1.05
32 | Cc1c[nH]c(/C=C2\C(=O)Nc3ccccc32)c1CCC(=O)O | 1.07
33 | NCc1ccc(S(N)(=O)=O)cc1 [Mafenide hydrochloride] | 1.14
34 | O=c1[nH]nc(Sc2ncc([N+](=O)[O-])s2)n1-c1ccc2c(c1)OCCO2 | 1.04
35 | Cn1cc(-c2ccc(S(=O)(=O)n3ccc(/C=C/C(=O)Nc4ccccc4N)c3)cc2)cn1 [4SC-202 tosylate] | 0.923
36 | CCc1oc2ccccc2c1C(=O)c1cc(Br)c(O)c(Br)c1 [Benzbromarone] | 1.04
37 | C=C(c1ccc(C(=O)O)cc1)c1cc2c(cc1C)C(C)(C)CCC2(C)C [Bexarotene] | 1.05
38 | O=c1cc(-c2ccc(O)cc2)oc2cc(O)c(O)c(O)c12 [Scutellarein] | 1.12
39 | CN(C)CCCCC(=O)Nc1ccc(NC(=S)NC(=O)c2ccc(C(C)(C)C)cc2)cc1 [Tenovin-6] | 1.06
40 | COc1cc2ncnc(Nc3ccccc3)c2cc1OC | 1
41 | CC(C)(C)NCC(O)c1cc(O)cc(O)c1 (stereo unspecified) [Terbutaline Sulfate] | 0.967
42 | CC[N+](CC)(CC)CCOc1cccc(OCC[N+](CC)(CC)CC)c1OCC[N+](CC)(CC)CC [Gallamine triethiodide] | 1.04
43 | CN1CCC[C@@H]1CCO[C@](C)(c1ccccc1)c1ccc(Cl)cc1 [Clemastine fumarate] | 1.06
44 | CCOc1ccc(NC(C)=O)cc1 [Phenacetin] | 1

Row | SMILES | cell viability
45 | O=C(c1ccc(OCCCc2c[nH]cn2)cc1)C1CC1 [Ciproxifan] | 0.93
46 | CC(C(=O)O)c1ccc(C(=O)c2cccs2)cc1 (stereo unspecified) [Suprofen] | 0.977
47 | CN1CCN(c2nc(C3=C(c4c[nH]c5ccccc45)C(=O)NC3=O)c3ccccc3n2)CC1 [Sotrastaurin] | 1.17
48 | COc1cc2ncnc(Nc3ccc(F)c(Cl)c3)c2cc1OCCCN1CCOCC1 [Gefitinib] | 0.969
49 | COC(=O)[C@]12CCC(C)(C)C[C@H]1[C@H]1C(=O)C=C3[C@@]4(C)C=C(C#N)C(=O)C(C)(C)[C@@H]4CC[C@@]3(C)[C@]1(C)CC2 [Bardoxolone Methyl] | 1.15
50 | Oc1cc(O)c(Cl)cn1 [Gimeracil] | 1.1
51 | COc1ccc2cc(OCC3(C(=O)O)CN(C(=O)c4ccc(F)cc4)C3)ccc2c1 | 1.17
52 | COc1ccc(N2C(=O)/C(=C\c3ccc([N+](=O)[O-])s3)SC2=S)cc1 | 0.574
53 | CC1(C)CNc2cc(NC(=O)c3cccnc3NCc3ccncc3)ccc21 [Motesanib] | 1.04
54 | COC(=O)C1=C(C)NC(C)=C(C(=O)OCCN(C)Cc2ccccc2)C1c1cccc([N+](=O)[O-])c1 (stereo unspecified) [Nicardipine hydrochloride] | 1.01
55 | Cc1cc(-c2ccc(CC(=O)Nc3ccc(-c4cccnc4)cc3)cc2)ccn1 | 0.962
56 | COc1ccc(C2CC(c3ccccc3)=NN2c2ccc(S(N)(=O)=O)cc2)cc1 (stereo unspecified) | 0.899
57 | CCCC(=O)[O-].[Na+] [Sodium butanoate] | 1.26
58 | COCCOc1ccc2c(c1)ncn2-c1ccc2cccc(N3CCC(N)CC3)c2n1 | 1.15
59 | Cc1cc(Nc2cc(N3CCN(C)CC3)nc(/C=C/c3ccccc3)n2)n[nH]1 | 0.803
60 | CNCc1cc(-c2ccccc2F)n(S(=O)(=O)c2cccnc2)c1 [Vonoprazan fumarate] | 1.18
61 | Cc1nn(C)c2c1C(c1ccc(C(F)(F)F)cc1)C(C#N)=C(N)O2 (stereo unspecified) | 0.891
62 | O=C1C(O)=C([C@H]2CC[C@H](c3ccc(Cl)cc3)CC2)C(=O)c2ccccc21 [Atovaquone] | 1.02
63 | Cc1ccc(/C=C2\CNC/C(=C\c3ccc(C)cc3)C2=O)cc1 | 1.06
64 | Cc1ccccc1C(OCCN(C)C)c1ccccc1 (stereo unspecified) [Orphenadrine hydrochloride] | 0.917
65 | CN(C)CCOC(c1ccc(Cl)cc1)c1ccccn1 (stereo unspecified) [Carbinoxamine Maleate Salt] | 1.15
66 | O=C1CCc2ccc(OCCCCN3CCN(c4cccc(Cl)c4Cl)CC3)cc2N1 [Aripiprazole] | 1.31

Row | SMILES | cell viability
67 | O=C(O)CNC(=O)c1nc(Cl)c2ccccc2c1O | 0.934
68 | NC(=O)NC1NC(=O)NC1=O (stereo unspecified) [Allantoin] | 0.86
69 | CCOCc1nc2c(N)nc3ccccc3c2n1CC(C)(C)O [Resiquimod] | 1.06
70 | CCCCCCCCCCCC1=C(O)C(=O)C=C(O)C1=O [Embelin] | 1.06
71 | CCC(Sc1nnc2c(n1)[nH]c1ccccc12)C(=O)N1c2ccccc2Sc2ccccc21 (stereo unspecified) [Inauhzin] | 1.07
72 | COc1c2ccoc2cc2oc(=O)ccc12 [Bergapten] | 1.06
73 | CCN(CC)CCOc1ccc(C(=C(Cl)c2ccccc2)c2ccccc2)cc1 [Clomifene citrate] | 1.02
74 | C[C@]1(COc2ccc(N3CCC(Oc4ccc(OC(F)(F)F)cc4)CC3)cc2)Cn2cc([N+](=O)[O-])nc2O1 [Delamanid] | 0.9
75 | CC(C)=CCC/C(C)=C/CC/C(C)=C/CSc1ccccc1C(=O)O [Salirasib] | 1.19
76 | CCCCCOC(=O)Nc1nc(=O)n([C@@H]2O[C@H](C)[C@@H](O)[C@H]2O)cc1F [Capecitabine] | 1.25
77 | COc1cc2ncnc(Oc3ccc(CC(=O)Nc4cnn(C(C)C)c4)cc3)c2cc1OC | 1.21
78 | CN1CCC(=C2c3ccccc3CCc3sccc32)CC1 [Pizotifen Malate] | 0.978
79 | CN1CCC(=C2c3ccccc3CCc3sccc32)CC1 [Pizotifen] | 1.36
80 | COc1ncc(-c2ccc3nccc(-c4ccnnc4)c3c2)cc1NS(=O)(=O)c1ccc(F)cc1F [Omipalisib] | 0.148
81 | O=C(O)COCCN1CCN([C@H](c2ccccc2)c2ccc(Cl)cc2)CC1 [Levocetirizine] | 1.27
82 | Cc1cc(-c2ncc(CC(=O)Nc3ccc(-c4cnccn4)cn3)cc2C)ccn1 | 1.04
83 | Cc1cnc(C(=O)NCCc2ccc(S(=O)(=O)NC(=O)NC3CCCCC3)cc2)cn1 [Glipizide] | 0.99
84 | COC(=O)/C=C/c1ccc(O)c(OC)c1 | 1.08
85 | FC(F)(F)c1ccc(CNc2ccc(Cc3c[nH]c4ncc(Cl)cc34)cn2)cc1 | 1.07
86 | CCCNc1nc(NCCC)nc(N(C)OC)n1 | 1.08
